# Experimental data reported in the supplement of paper PMC4166925.
# ± gives the standard deviation of the averaged measurements. Whole data set: some 33,000 sequences, median “E-score (dimensionless, -0.5 to 0.5)” near -0.046, cut for the highest 2% near 0.36. This is one part of the list.
# Tested on: T1, SpTbr T-box DNA-binding domain (GST fusion)
# T1 sequence: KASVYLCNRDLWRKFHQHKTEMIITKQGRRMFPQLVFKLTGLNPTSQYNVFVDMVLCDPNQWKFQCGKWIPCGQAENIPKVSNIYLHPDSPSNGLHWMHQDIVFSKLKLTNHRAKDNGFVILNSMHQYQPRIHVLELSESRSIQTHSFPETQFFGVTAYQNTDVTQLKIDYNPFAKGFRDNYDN
# Assay: PBM E-score of 8-mer (E-score (dimensionless, -0.5 to 0.5)); Tbr is Tbrain of the sea star Patiria miniata (Pm) or the sea urchin Strongylocentrotus purpuratus (Sp); higher = stronger binding preference; most listed sequences are background and not binding sites
# Conditions: the construct has about 5 more residues each side
# How it was run: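 Universal Agilent oligonucleotide arrays, made double-stranded by primer extension, were incubated with 200 nM GST-fused Tbr T-box DNA-binding domain in PBS (pH 7.5). The protein was expressed in BL21 E. coli at 20 °C and purified by glutathione affinity chromatography. After scanning and quantification, the Universal PBM Analysis Suite assigned an enrichment E-score to each ungapped 8-mer, averaged over duplicate arrays.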
row,Sequence,PBM E-score of 8-mer
1,TCATTACA,-0.0133 ± 0.029
2,ATTACATA,-0.115 ± 0.038
3,AGATTACT,0.00864 ± 0.0059
4,CCACCTCG,0.228 ± 0.019
5,ACTGCCTA,-0.14 ± 0.028
6,AAAAGTAA,-0.13 ± 0.022
7,CCGAAAGG,-0.139 ± 0.059
8,CACGACGG,0.154 ± 0.011
9,CGATAGCC,-0.124 ± 0.035
10,AGGTGAAT,0.0974 ± 0.03
11,ACATCCAG,0.11 ± 0.03
12,TGTATGAA,-0.1868 ± 0.00056
13,AACTTCAT,-0.0326 ± 0.0097
14,GGGATTCA,-0.198 ± 0.042
15,CCTGTTCG,0.0983 ± 0.041
16,CTCGTATA,-0.142 ± 0.0069
17,AGAGAAAC,-0.203 ± 0.065
18,CCAATGCA,-0.17 ± 0.014
19,GTAAACGA,0.0262 ± 0.028
20,AACCGGCC,-0.307 ± 0.021
21,GTGACTGA,0.219 ± 0.0086
22,GCGAGAAA,0.342 ± 0.0013

row,Sequence,PBM E-score of 8-mer
1,CTGGGGCA,0.035 ± 0.018
2,TAACGTCA,0.00157 ± 0.054
3,AGAACCCC,0.0318 ± 0.019
4,AAGGCGCA,0.164 ± 0.054
5,CAATGAGG,-0.159 ± 0.043
6,AGTGCTAT,0.243 ± 0.079
7,CAATAGGC,-0.129 ± 0.012
8,CTGTATGC,-0.0634 ± 0.0013
9,GAAAGATC,-0.091 ± 0.048
10,GGGGGGAA,-0.289 ± 0.021
11,GAGGGGCA,-0.0623 ± 0.054
12,GGAAGGTA,-0.118 ± 0.022
13,GAGTAACC,-0.27 ± 0.048
14,ATGACTAC,-0.124 ± 0.034
15,CTAAGCGA,-0.0129 ± 0.077
16,CCAGTAAG,-0.0356 ± 0.038
17,GCTCCTAC,0.0646 ± 0.0047
18,GCGCAGCA,-0.0875 ± 0.074
19,CATGTCGC,0.295 ± 0.022
20,AGCTAGGC,-0.0248 ± 0.034
21,ACGTCCCA,0.128 ± 0.051
22,ACTGCGAA,0.332 ± 0.018

row,Sequence,PBM E-score of 8-mer
1,AGGGTAGA,-0.123 ± 0.013
2,GGTACGGA,-0.168 ± 0.037
3,AGCCCCCG,-0.0604 ± 0.015
4,ACAAGATA,-0.0688 ± 0.057
5,CGCCAACG,0.249 ± 0.0059
6,GGACGGAA,-0.196 ± 0.042
7,GCAGCGAC,0.0569 ± 0.0088
8,GGTTGCCA,0.0502 ± 0.059
9,ACTGGCGC,0.15 ± 0.073
10,CCCTTCTA,-0.0119 ± 0.062
11,GGCACAGA,-0.0765 ± 0.08
12,AGCCGCCT,-0.0151 ± 0.081
13,CGCGGACG,0.218 ± 0.043
14,ACTCTGAT,-0.159 ± 0.032
15,ACGCTTTG,0.146 ± 0.01
16,GCTATCCC,-0.0867 ± 0.066
17,CAGCCTAG,-0.0894 ± 0.0031
18,AAGCAAAT,-0.22 ± 0.038
19,ATCACGAG,0.158 ± 0.036
20,AGGACCAG,-0.213 ± 0.0063
21,AGCGTAAG,-0.0572 ± 0.008
22,ATTGAACG,-0.256 ± 0.016

row,Sequence,PBM E-score of 8-mer
1,ATCGTTGC,-0.00439 ± 0.021
2,CTGGTAAA,-0.036 ± 0.055
3,AGGTAGAG,-0.105 ± 0.087
4,CGGCAGTA,-0.1505 ± 0.00081
5,ACAGCGAC,0.0384 ± 0.044
6,ATTCCCGG,-0.177 ± 0.074
7,TTAAGAAA,-0.127 ± 0.016
8,AAAAATAA,-0.125 ± 0.075
9,CACGTGGG,0.14 ± 0.023
10,AGAAAATA,0.0356 ± 0.13
11,CCCGGTCC,-0.235 ± 0.039
12,GCTCAAGC,-0.247 ± 0.098
13,AAGCTTGC,0.118 ± 0.012
14,GGACGCTA,0.00335 ± 0.09
15,CCGTAGAA,-0.35 ± 0.015
16,ACCGCGAC,0.0643 ± 0.075
17,GGCCCATA,-0.384 ± 0.1
18,ATACGGAA,-0.223 ± 0.036
19,CTAGATAG,-0.156 ± 0.034
20,ACCTGCCT,0.00297 ± 0.084
